Results from paper PMC3531375.
No constants are given. Whether binding was seen depends on the method and setting. Binding seen in cells or lysates may run through a third protein. Some binding calls cover weakened binding; strength is not graded here. For some assays here: Where a sequence is shown, tags or fusion partners need not be part of it. Blank lines part the entries; values can stand above or below the molecule they belong to.

Amino acid sequences for entries named in this document (tags omitted). A change or cut given only in a name is not applied to a line headed by its entry. Chains listed by the source or under a name are the forms on record and can include a tag or linker. Residues count along the entry.
UniProt P15205: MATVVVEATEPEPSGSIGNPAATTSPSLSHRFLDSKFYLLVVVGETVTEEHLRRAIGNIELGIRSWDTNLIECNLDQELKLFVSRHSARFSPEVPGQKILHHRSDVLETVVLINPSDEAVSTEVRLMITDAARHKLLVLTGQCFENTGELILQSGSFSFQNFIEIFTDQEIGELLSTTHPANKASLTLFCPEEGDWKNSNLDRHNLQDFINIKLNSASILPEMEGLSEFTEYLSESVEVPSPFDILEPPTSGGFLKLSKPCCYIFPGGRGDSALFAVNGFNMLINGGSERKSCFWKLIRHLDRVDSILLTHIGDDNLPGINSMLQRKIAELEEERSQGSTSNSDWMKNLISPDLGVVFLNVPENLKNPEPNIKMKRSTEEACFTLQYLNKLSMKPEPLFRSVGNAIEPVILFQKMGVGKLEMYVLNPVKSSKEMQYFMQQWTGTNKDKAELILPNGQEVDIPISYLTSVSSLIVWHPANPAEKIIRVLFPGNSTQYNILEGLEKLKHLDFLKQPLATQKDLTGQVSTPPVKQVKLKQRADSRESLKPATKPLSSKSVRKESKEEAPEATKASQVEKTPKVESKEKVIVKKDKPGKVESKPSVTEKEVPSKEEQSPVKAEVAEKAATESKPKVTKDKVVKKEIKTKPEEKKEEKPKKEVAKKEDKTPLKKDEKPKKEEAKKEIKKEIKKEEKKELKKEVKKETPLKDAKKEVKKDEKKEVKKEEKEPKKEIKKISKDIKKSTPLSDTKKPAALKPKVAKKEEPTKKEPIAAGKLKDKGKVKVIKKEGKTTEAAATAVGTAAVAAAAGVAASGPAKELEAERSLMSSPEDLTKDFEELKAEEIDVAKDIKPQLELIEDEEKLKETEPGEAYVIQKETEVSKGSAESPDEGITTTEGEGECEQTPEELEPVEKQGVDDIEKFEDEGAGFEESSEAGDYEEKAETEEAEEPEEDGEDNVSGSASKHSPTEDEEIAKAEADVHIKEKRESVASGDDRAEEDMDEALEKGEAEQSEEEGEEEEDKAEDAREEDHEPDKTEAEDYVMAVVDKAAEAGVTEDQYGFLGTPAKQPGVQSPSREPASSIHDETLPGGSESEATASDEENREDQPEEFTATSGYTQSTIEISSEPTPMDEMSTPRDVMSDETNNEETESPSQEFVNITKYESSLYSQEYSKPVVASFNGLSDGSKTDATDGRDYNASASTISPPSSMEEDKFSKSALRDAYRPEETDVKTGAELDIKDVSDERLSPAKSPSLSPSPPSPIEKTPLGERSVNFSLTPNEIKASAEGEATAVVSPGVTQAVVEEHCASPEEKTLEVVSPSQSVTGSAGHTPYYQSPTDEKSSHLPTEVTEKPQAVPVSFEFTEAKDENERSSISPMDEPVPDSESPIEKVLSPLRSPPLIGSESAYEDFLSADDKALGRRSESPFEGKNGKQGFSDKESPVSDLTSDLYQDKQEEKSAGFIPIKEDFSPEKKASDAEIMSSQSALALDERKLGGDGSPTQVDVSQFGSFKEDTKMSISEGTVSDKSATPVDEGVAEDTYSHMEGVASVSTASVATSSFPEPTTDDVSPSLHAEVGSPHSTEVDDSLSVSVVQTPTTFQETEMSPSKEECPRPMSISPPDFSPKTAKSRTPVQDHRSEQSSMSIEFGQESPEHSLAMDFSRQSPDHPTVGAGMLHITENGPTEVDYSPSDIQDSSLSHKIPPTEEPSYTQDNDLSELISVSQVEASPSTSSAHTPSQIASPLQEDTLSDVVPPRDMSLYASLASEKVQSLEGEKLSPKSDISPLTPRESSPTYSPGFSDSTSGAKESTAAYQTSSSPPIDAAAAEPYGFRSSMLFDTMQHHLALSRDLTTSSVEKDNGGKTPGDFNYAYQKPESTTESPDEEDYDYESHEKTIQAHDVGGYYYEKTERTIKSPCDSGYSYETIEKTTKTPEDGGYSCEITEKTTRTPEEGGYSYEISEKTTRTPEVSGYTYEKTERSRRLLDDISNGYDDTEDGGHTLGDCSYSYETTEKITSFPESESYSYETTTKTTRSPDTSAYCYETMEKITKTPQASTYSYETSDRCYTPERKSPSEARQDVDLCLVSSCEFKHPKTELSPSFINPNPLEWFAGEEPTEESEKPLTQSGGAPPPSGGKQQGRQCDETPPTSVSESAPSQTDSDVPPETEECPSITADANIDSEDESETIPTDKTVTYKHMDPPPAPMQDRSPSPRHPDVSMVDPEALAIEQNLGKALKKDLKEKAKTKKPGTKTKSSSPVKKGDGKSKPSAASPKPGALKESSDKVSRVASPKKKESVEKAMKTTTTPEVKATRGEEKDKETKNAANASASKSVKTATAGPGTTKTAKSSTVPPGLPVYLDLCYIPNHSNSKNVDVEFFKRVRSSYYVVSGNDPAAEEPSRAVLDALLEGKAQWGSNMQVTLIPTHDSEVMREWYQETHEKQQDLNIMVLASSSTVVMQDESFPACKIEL
MAP1B light chain 1, C-terminal myc-tag, expressed in N1E115 cells: residues 2210-2459 of P15205
GST fusion of light chain 1 (LC1) of MAP1B, amino acids 2100-2459 (P14873, residues 2100-2459): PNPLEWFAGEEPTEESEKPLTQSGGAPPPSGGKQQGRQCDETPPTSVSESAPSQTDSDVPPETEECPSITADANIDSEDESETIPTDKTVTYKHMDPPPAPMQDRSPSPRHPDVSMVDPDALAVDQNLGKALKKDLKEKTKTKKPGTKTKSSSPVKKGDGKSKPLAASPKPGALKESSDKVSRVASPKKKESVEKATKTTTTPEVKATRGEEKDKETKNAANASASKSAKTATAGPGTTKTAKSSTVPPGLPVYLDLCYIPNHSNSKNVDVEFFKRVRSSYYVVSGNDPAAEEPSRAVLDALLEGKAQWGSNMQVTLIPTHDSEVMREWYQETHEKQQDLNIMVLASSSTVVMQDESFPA
GST fusion of the N-terminal domain (NTD, microtubule binding domain) of LC1 of MAP1B, amino acids 2100-2336 (P14873, residues 2100-2336): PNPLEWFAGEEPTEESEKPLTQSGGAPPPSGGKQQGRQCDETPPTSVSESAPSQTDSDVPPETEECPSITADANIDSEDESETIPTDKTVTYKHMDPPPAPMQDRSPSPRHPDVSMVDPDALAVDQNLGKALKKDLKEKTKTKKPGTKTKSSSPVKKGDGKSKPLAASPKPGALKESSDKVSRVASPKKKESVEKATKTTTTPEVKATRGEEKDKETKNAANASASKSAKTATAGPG
GST fusion of the C-terminal domain (CTD, actin binding domain) of LC1 of MAP1B, amino acids 2336-2459 (P14873, residues 2336-2459): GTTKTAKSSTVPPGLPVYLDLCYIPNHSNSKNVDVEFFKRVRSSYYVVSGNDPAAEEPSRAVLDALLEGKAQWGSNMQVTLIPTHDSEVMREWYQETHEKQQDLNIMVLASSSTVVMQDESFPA

Columns and labels:
[1] = target: MAP1B full length, C-terminal myc-tag, expressed in N1E115 cells (UniProt P15205); assay: co-IP; anti-c-myc antibody with protein A or G beads on lysates of N1E115 cells (with endogenous MAP1B) transfected with myc-tagged MAP1B constructs and tTA; 4 h at 4°C, washes in lysis buffer A; blot for endogenous Tiam1
[2] = target: MAP1B light chain 1, C-terminal myc-tag, expressed in N1E115 cells (UniProt P15205); assay: as above
[3] = target: GST fusion of light chain 1 (LC1) of MAP1B, amino acids 2100-2459 (mouse) (UniProt P14873); assay: pull-down; 40 µg of GST fusion on glutathione-Sepharose beads incubated overnight at 4°C with 1 mg of fetal brain lysate; six washes with lysis buffer B; blot with anti-Tiam1; only the target purified
[4] = target: GST fusion of the C-terminal domain (CTD, actin binding domain) of LC1 of MAP1B, amino acids 2336-2459 (mouse) (UniProt P14873); assay: as above
[5] = target: GST fusion of the N-terminal domain (NTD, microtubule binding domain) of LC1 of MAP1B, amino acids 2100-2336 (mouse) (UniProt P14873); assay: as above
[6] = target: GST fusion of light chain 1 (LC1) of MAP1B, amino acids 2100-2459 (mouse) (UniProt P14873); assay: pull-down; 40 µg of GST fusion on glutathione-Sepharose beads incubated overnight at 4°C with 1 mg of lysate of COS7 cells transfected with FLAG-tagged Tiam1 constructs; six washes with lysis buffer B; blot with anti-FLAG; only the target purified
[7] = target: GST fusion of the C-terminal domain (CTD, actin binding domain) of LC1 of MAP1B, amino acids 2336-2459 (mouse) (UniProt P14873); assay: as above
[8] = target: GST fusion of the N-terminal domain (NTD, microtubule binding domain) of LC1 of MAP1B, amino acids 2100-2336 (mouse) (UniProt P14873); assay: as above

- binding [1]: binds
- binding [2]: binds
Molecule: Tiam1, endogenous in N1E115 neuroblastoma cells (from UniProt Q60610 1-1591)

Molecule: Tiam1, endogenous in fetal brain lysate (from UniProt Q60610 1-1591)
- binding [3]: binds
- binding [4]: binds
- binding [5]: binds

B1: FLAG-Tiam1 T2, N-terminal pleckstrin domain (N-PH, amino acids 400-740) (domain or fragment, UniProt Q60610 400-740)
chain: SLEEAGSAHSDEQSSGTLSSPGQSDILLTAAQGTVRKAGALAVKNFLVHKKNKKVESATRRKWKHYWVSLKGCTLFFYETDGRSGIDHNSVPKHAVWVENSIVQAVPEHPKKDFVFCLSNSLGDAFLFQTTSQTELENWITAIHSACAAAVARHHHKEDTLRLLKSEIKKLEQKIDMDEKMKKMGEMQLSSVTDSKKKKTILDQIFVWEQNLEQFQMDLFRFRCYLASLQGGELPNPKRLLAFASRPTKVAMGRLGIFSVSSFHALVAARTGEIGVRRRTQAMSRSASKRRSRFSSLWGLDTTSKKKQGRPTINQVFGEGTDAVKRSLEGIFDDTVPDGKR
- binding [6]: binds
- binding [7]: binds
- binding [8]: binds

B2: FLAG-Tiam1 T4, Dbl-homology domain (DH, amino acids 1000-1263) (domain or fragment, UniProt Q60610 1000-1263)
chain: EQVAAFCRSLHEMSPSDSSPSPQDATSPQLATTRQLSDADKLRKVICELLETERTYVKDLNCLMERYLKPLQKETFLTQDELDVLFGNLTEMVEFQVEFLKTLEDGVRLVPDLEKLEKVDQFKKVLFSLGGSFLYYADRFKLYSAFCASHTKVPKVLVKAKTDTAFKAFLDAQNPRQQHSSTLESYLIKPIQRVLKYPLLLRELFALTDAESEEHYHLDVAIKTMNKVASHINEMQKIHEEFGAVFDQLIAEQTGEKKEVADLS
- binding [6]: no binding

B3: FLAG-Tiam1 T1, N-terminal domain and PEST motif (amino acids 1-400) (domain or fragment, UniProt Q60610 1-400)
chain: MGNAESQNVDHEFYGEKHASLGRKHTSRSLRLSHKTRRTRHASSGKAIHRNSEVSTRSSSTPSIPQSLAENGLEPFSQEGALDDFGDPIWVDRVDMGLRPVSYTDSSVTPSVDGSIVLTAASVQSMPDSEESRLYGDDATYLAEGGRRQCPYTSNGPTFMETASFKKKRSKSADIWREDSLEFSLSDLSQEHLTSNEEILGSAEEKDCEEARGMETEASPRQLSTCQRANSLGDLYAQKNSGVKANGGPRNRFSSYCRNLVSDIPDLAKHKMPPAAAEETPPYSNYNTLPCRKSHCLSEGATNPQISLSKSMQGRRAKTTQDVNTGEGSEFADSGIEGATTDTDLLSRRSNATNSSYSPPTGRAFVGSDSGSSSTGDRARQGVYENFRRELEMSTTNSES
- binding [6]: no binding

B4: FLAG-Tiam1 T3, Ras binding domain (RBD) and PDZ domain (amino acids 740-1000) (domain or fragment, UniProt Q60610 740-1000)
chain: REKEVVLPSVHQHNPDCDIWVHEYFTPSWFCLPNNQPALTVVRPGDTARDTLELICKTHQLDHSAHYLRLKFLMENRVQFYIPQPEEDIYELLYKEIEICPKVTQNIHIEKSDAAADNYGFLLSSVDEDGIRRLYVNSVKETGLASKKGLKAGDEILEINNRAAGTLNSSMLKDFLSQPSLGLLVRTYPEPEGGVELLENPPHRVDGPVDLGESPLAFLTSNPGHSLSSEQGSSAETAPEEGEGPDLESSDETDHSSKSTE
- binding [6]: no binding

B5: FLAG-Tiam1 T5, C-terminal pleckstrin domain (C-PH, amino acids 1263-1591) (domain or fragment, UniProt Q60610 1263-1591)
chain: SMGDLLLHTSVIWLNPPASLGKWKKEPELAAFVFKTAVVLVYKDGSKQKKKLVGSHRLSIYEEWDPFRFRHMIPTEALQVRALPSADAEANAVCEIVHVKSESEGRPERVFHLCCSSPESRKDFLKSVHSILRDKHRRQLLKTESLPSAQQYVPFGGKRLCALKGARPAMSRAVSAPSKSLGRRRRRLARNRFTIDSDAISASSPEKEPQQPAGGGDTDRWVEEQFDLAQYEEQDDIKETDILSDDDEFCESLKGASVDRDLQEQLQAASISQRARGRRTLDSHASRMTQLKKQAALSGINGGLESASEEVIWVRREDFAPSRKLNTEI
- binding [6]: binds
- binding [7]: binds
- binding [8]: binds
